Experimental data taken from patent publication EP3262942A1, “SELENODIARYLS FOR USE AS MICROBICIDE OR AS MEDICINE” (Evonik Degussa GmbH, priority 2016, dated 2018).

tested on: S. italica und L. sativum; test: Crop plant growth test, summary statement for both crop plants; format: in vivo
Description: Testsubstanzen und Kontrollen werden auf Filterrondellen in Mikrotiterplatten (48 well) vorgelegt und das verwendete Lösungsmittel (DMSO) über Lyophilisation entfernt. Anschließend werden ca. 12 Samen pro Vertiefung (Setaria italical Lepidium sativum) zugeben, mit 200 µl sterilem Leitungswasser pro Vertiefung versetzt, mit einem Deckel versehen und in einer feuchten Kammer für 4 Tage im Pflanzenbrutschrank inkubiert (16h-Licht-8h-Dunkel-Rhythmus). Die Auswertung des Tests erfolgt optisch (+: mind. 75 % Wachstumshemmung im Vergleich zur Kontrolle, -: weniger als 75 % Wachstumshemmung im Vergleich zur Kontrolle.

Question: With `Cc1cc([Se]c2cc(C)c(O)c(C)c2)cc(C)c1O` [Verbindung 19, Bis(3,5-dimethyl-4-hydroxyphenyl)selen] as the molecule, how does the “Effekt auf die getesteten Nutzpflanzen (S. italica und L. sativum)” value (from here on “Effekt auf die getesteten Nutzpflanzen”) read?
Answer: wachstumshemmenden Effekt

Question: With `Cc1cc(C)c(O)c([Se]c2c(C)c(C)cc(C)c2O)c1C` [Verbindung 17, Bis(2-hydroxy-3,5,6-trimethylphenyl)selen] as the molecule, how does the “Effekt auf die getesteten Nutzpflanzen” value read?
Answer: wachstumshemmenden Effekt

Question: `Cc1c(Cl)cc(C(C)C)c(O)c1[Se]c1c(C)c(Cl)cc(C(C)C)c1O` [Verbindung 21, Bis(3-chlor-6-hydroxy-5-isopropyl-2-methylphenyl)selen] was tested. Which “Effekt auf die getesteten Nutzpflanzen” value did it give?
Answer: keine Schädigung von Nutzpflanzen

Question: For `Cc1cc(Br)c(O)c([Se]c2cc(C)cc(Br)c2O)c1` [Verbindung 23, Bis(3-brom-2-hydroxy-5-methylphenyl)selen], which “Effekt auf die getesteten Nutzpflanzen” value is on record?
Answer: keine Schädigung von Nutzpflanzen

Question: For `Cc1cc(Cl)cc([Se]c2cc(Cl)cc(C)c2O)c1O` [Verbindung 22, Bis(3-chlor-6-hydroxy-5-methylphenyl)selen], which “Effekt auf die getesteten Nutzpflanzen” value is on record?
Answer: keine Schädigung von Nutzpflanzen

Question: How did the “Effekt auf die getesteten Nutzpflanzen” value turn out when `Oc1c(F)cc(F)cc1[Se]c1cc(F)cc(F)c1O` [Verbindung 25, Bis(3,5-difluoro-2-hydroxyphenyl)selen] was run?
Answer: wachstumshemmenden Effekt

Question: For `Oc1c(Cl)cc(F)cc1[Se]c1cc(F)cc(Cl)c1O` [Verbindung 24, Bis(3-chlor-5-fluor-2-hydroxyphenyl)selen], which “Effekt auf die getesteten Nutzpflanzen” value is on record?
Answer: wachstumshemmenden Effekt
